From PubChem BioAssay (NCI) come the findings set out here.

Each structure is given as a SMILES string. Where “and” joins values, the source holds several entries; their conditions need not be identical. Equal entries are not always repeated.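 Step 1: Grow cells in 96-well plates. Step 2: Expose to compound for 48 hours at 5 concentrations. Step 3: Interpolate endpoints linearly; if unreached, use highest concentration. GI50: concentration for 50% inhibition of growth. TGI denotes the concentration required for complete inhibition of growth.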

This test concerns NCI-H322M lung. As to the kind of experiment: DTP human tumour cell line panel, 48 h.

For `CC(CNC(=O)c1ccccc1)(CNC(=O)c1ccccc1)[N+](=O)[O-]`, the TGI (commonly the concentration giving total growth inhibition) is greater than 100 µM. The same measure, in the same setting: the value for `CCCCCC#COC1CC(C)CC[C@@H]1C(C)C` (stereo not given in full) was greater than 100 µM; that for `O=C(O)c1cccc(OCCOc2cccc(C(=O)O)c2[N+](=O)[O-])c1[N+](=O)[O-]` was greater than 100 µM; that for `CC(=O)N(CCN1C(=O)c2ccccc2C1=O)CCN1C(=O)c2ccccc2C1=O` was greater than 100 µM. `CC(C)OC(=O)NNc1cccc(Cl)c1` had a TGI greater than 100 µM. `O=C(NCCc1ccccc1)c1cc(/C=C/c2cc(O)ccc2O)ccc1O` yielded a TGI of 27.1 µM. In the case of `C=C1CC(C)(COc2cc(=O)oc3ccccc23)OC1=O` (stereo not given), the TGI stood at 21.6 µM. The same measure, in the same setting: next, `COc1cc2c(cc1O)Cc1c-2[n+](C)cc2cc(OC)c(OC)cc12`: greater than 100 µM. As to `CCOC(=O)Nc1ccc2c(c1)N(C(=O)CCN(CC)CC)c1ccccc1S2`, the GI50 (as a rule, the concentration giving 50% growth inhibition) was 31.3 µM; the total growth inhibition concentration (TGI) was > 89.5 µM and 97.3 µM.

Take `NC1=NC2=C(CCCC2)C(c2cccs2)S1` (stereo not given): the TGI was greater than 100 µM. Take `CCOC(=O)[C@@H](C)C[C@H](Cc1ccccc1)NC(=O)c1csc([C@@H](C[C@H](C(C)C)N(C)C(=O)[C@@H](NC(=O)[C@H]2C[C@H](O)CCN2C)C(C)C)OC(C)=O)n1`: the concentration for 50% growth inhibition (GI50) was 0.00839 µM and the TGI is greater than 16.7 µM. For `COc1cc2c3c(n(CCCN4CCCNCC4)c(=O)c2cc1OC)-c1cc2c(cc1C3=O)OCO2` the same measures were 2.55 µM and 9.28 µM. Taken in the same sequence, the figures for `Cc1ccc(NC(=O)c2nc(S(C)(=O)=O)oc2-c2ccc(F)cc2)cc1Nc1ccc2ncn(C)c(=O)c2c1` were 5.55 µM and 17.3 µM. With `O=c1[nH]c2ccccc2n2cc3ccccc3c12`, the GI50 was 23.8 µM and the total growth inhibition concentration (TGI) stood at 46.2 µM. In the case of `CCCCOC(=O)NC(Nc1ccc(S(=O)(=O)Nc2ncccn2)cc1)(C(F)(F)F)C(F)(F)F`, the total growth inhibition concentration (TGI) is greater than 100 µM. The same measure, in the same setting: next, `O=c1oc2ccc3ccccc3c2cc1-c1cn2c(n1)sc1ccccc12`: greater than 100 µM. In the case of `Brc1ccc(Nc2nc3ccccc3nc2Nc2ccc(Br)cc2)cc1`, the GI50 is 2.07 µM and the TGI was 10.1 µM. Consider `Cc1cc(C)c(S(=O)(=O)N(CCCN)OCCON(CCCN)S(=O)(=O)c2c(C)cc(C)cc2C)c(C)c1`, for which the total growth inhibition concentration (TGI) was determined as 9.07 µM. Still for that read-out and setting: the value for `N#CC(/C(=N/NC(N)=S)C(=O)Nc1cccc(Cl)c1)c1ccccc1` (stereo not given) was greater than 100 µM. As to `Cn1c(NCC(CN2CCCC2)OC(=O)c2ccccc2)cc(=O)n(C)c1=O` (stereo not given), the GI50 was greater than 100 µM and the TGI is greater than 100 µM. Consider `O=P(CCOc1ccccc1OCCP(=O)(c1ccccc1)c1ccc2c(c1)OCCOCCOCCOCCO2)(c1ccccc1)c1ccc2c(c1)OCCOCCOCCOCCO2` (stereo not given), for which the TGI is greater than 100 µM. For the compound `[N-]=[N+]=CC(=O)OCC1NC(=O)C(COC(=O)C=[N+]=[N-])NC1=O` (stereo not given), the TGI is greater than 100 µM. Same read-out and setting: the value for `O=C(O)c1ccc(Oc2nc3ccccc3s2)cc1` was greater than 100 µM.

In the case of `NCCCNc1nc2ccc(Cl)cc2c2c(=O)c3cc(F)ccc3sc12`, the GI50 is 7 µM and the TGI came to 20.7 µM. For the compound `C=C1C(=O)c2cc3c(cc2C(c2cc(OC)c(OC)c(OC)c2)[C@@H]1C(=O)O)OCO3` (stereo not given in full), the TGI is greater than 100 µM.

In the case of `O=C1c2cccnc2C(=O)c2c1c(C(=O)OCCc1ccccn1)c1ccccn21`, the GI50 was 0.044 µM and the concentration for total growth inhibition (TGI) was determined as 1.97 µM.
